Measurements published in PubChem BioAssay AID602233 (National Center for Advancing Translational Sciences (NCATS), 2012).
Several values for one entry are separate records, joined by “and”; a condition that tells them apart may be missing. Equal values may be shown once. Hit rate of the full screen: of about 380,000 compounds, about 170 (0.045%) were called active. This list was built around the results that the source calls inconclusive (neither active nor inactive); the mix of calls is not that of the screen. Calls come from the whole dose curve; as a rule, active = well fitted inhibition curve with a large enough effect; inconclusive = small, poorly fitted or top-dose-only effect; inactive = no such curve, though single readings can be large or run the other way. Potencies beside an inconclusive call are fits to weak or partial responses and may not hold up.

molecular target: Phosphoglycerate kinase, glycosomal (Trypanosoma brucei brucei) (UniProt P07378); assay: qHTS Assay to Find Inhibitors of Phosphoglycerate Kinase; settings: PGK/GAPDH coupled, Kinase-Glo luminescence, 60 min; series mostly up to 57.5 µM; activity change, negative = inhibition: at the top concentration; note: nearly all actives have a fitted effect of over 60% in size
Procedure, shortened: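 Recombinant glycosomal PGK reaction used 1,3-bisphosphoglycerate generated in-well by GAPDH (100nM final) in 100mM TEA pH 7.6, 5mM MgCl2, 0.01% Tween-20. After 60 minutes at room temperature, ATP was read by Kinase-Glo Plus luminescence end-point.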
% is set by controls: 0 for no effect and ±100 for the full control effect; potency is the fitted concentration of half-maximal effect; tags give direction and shape of the fitted curve.

Compound	Potency	activity change, negative = inhibition	outcome
CN(CCc1ccccc1)C1CCCN(S(=O)(=O)N(C)C)C1 (stereo not drawn)	inconclusive: 31.6 µM [inhibitor, single point]		
Cc1ccc(S(=O)(=O)CCC(=O)OCC(=O)NCc2ccc(F)cc2)cc1		inactive: -7.58%	
CCc1ccc(/C=C(/C#N)C(N)=S)s1		inactive: 3.35%	
Cc1cc(C)c(-c2cc(C(F)(F)F)no2)c(=O)[nH]1	inconclusive: 3.55 µM [inhibitor, single point]		
Fc1cccc(CCN2CCNC[C@@H]2Cc2ccccc2)c1	inconclusive: 15.8 µM [inhibitor, partial curve, poor fit]		
O=C(c1ccc2c3n(nc2c1)-c1ccccc1CO3)N1CCCCC1	inconclusive: 25.1 µM [inhibitor, partial curve, poor fit]		
O=C(CSc1nc(-c2cccc(Cl)c2)nc2cc(=O)[nH]n12)Nc1ccccc1	inconclusive: 28.2 µM [inhibitor, single point]		
CCOc1ccc2c(c1)sc(N)[n+]2Cc1cc(C)cc2cccnc12			inactive
COc1ccc2[nH]c(C(=O)O)c(CCN3C(=O)c4cccc([N+](=O)[O-])c4C3=O)c2c1	inconclusive: 31.6 µM [inhibitor, single point]		
Cc1ncc(CO)c(/C=N/NC(=O)c2cc(Br)ccc2O)c1O		inactive: -2.38%	
COc1ccc(NC(=O)N2CCc3ccccc32)cc1	inconclusive: 17.8 µM [inhibitor, partial curve]		
CCC(=O)N1CCc2cc(Br)cc(S(=O)(=O)CCC(=O)NCCc3ccccc3Cl)c21	inconclusive: 28.2 µM [inhibitor, partial curve, poor fit]		
COc1cc(OC)c(-c2c3cc(O)c(=O)cc-3oc3cc(O)c(O)cc23)cc1OC	inconclusive: 1.12 µM [inhibitor, full curve, poor fit]		
COc1cc(/C=N/Nc2ccc(C(=O)O)cc2)ccc1O	inconclusive: 31.6 µM [inhibitor, single point]		
O=C1C(=Cc2ccc(Br)o2)C(=O)c2ccccc21	active: 7.94 µM		
Oc1ccc(/C=N/Nc2nccnc2Cl)c(O)c1	inconclusive: 17.8 µM [inhibitor, single point]		
O=C1Nc2ccc(S(=O)(=O)N(CCO)CCO)c3cccc1c23		inactive: -3.81%	
Cc1ccc(CCNc2nc3c(S(=O)(=O)c4ccc(C)cc4)nnn3c3ccsc23)cc1		inactive: -1.91%	
Cc1ccc(-c2nc(SCc3ccc(Br)cc3)n3[nH]c(=O)cc3n2)cc1	inconclusive: 3.16 µM [inhibitor, full curve, poor fit]		
Cc1ccc(Cn2ccc(NC(=O)c3cc(-c4ccc(Cl)c(Cl)c4)on3)n2)cc1			inactive
CC(C)NC(=O)c1cc(-c2ccc3c(c2)OCO3)on1	inconclusive: 39.8 µM [inhibitor, partial curve, poor fit]		
COC(=O)c1cccc(NC(=S)Nc2ccc(Cl)c(Cl)c2)c1	inconclusive: 28.2 µM [inhibitor, partial curve, poor fit]		

Compound	Potency	activity change, negative = inhibition	outcome
CO/N=C/c1cccn1-c1nccc(OC)c1C#N		inactive: -1.55%	
COc1ccccc1-n1c(C)c(C(C)=O)c2cc(O)ccc21		inactive: 9.26%	
CCOC(=O)N1CCN(C(=O)CCS(=O)(=O)c2ccc3c(c2)CC(C)N3C(=O)CC)CC1 (stereo not drawn)			inactive
COc1ccc(S(=O)(=O)N2CCN(C(=O)c3cc4c(s3)CCC4)CC2)cc1	inconclusive: 14.1 µM [inhibitor, partial curve, poor fit]		
COC(=O)C1=COC(OC2OC(CO)C(O)C(O)C2O)C2C1C=CC2(O)CO (stereo not drawn)	inconclusive: 28.2 µM [inhibitor, partial curve, poor fit]		
O=C(COc1ccc2c3c(c(=O)oc2c1)CCCC3)NCC(O)c1ccccc1 (stereo not drawn)	inconclusive: 8.91 µM [inhibitor, single point]		
C=CCc1ccccc1OCC(O)CN1CCN(CCN2C(=O)c3cccc4cccc(c34)C2=O)CC1 (stereo not drawn)		inactive: -1.77%	
O=C(N/N=C/c1ccc(Cl)c([N+](=O)[O-])c1)c1ccc2c(c1)OCCO2	inconclusive: 15.8 µM [inhibitor, partial curve, poor fit]		
CC(CNc1ccccc1O)C(=O)O (stereo not drawn)	inconclusive: 4.47 µM [inhibitor, full curve]		
COc1ccc(/C(C)=N/Nc2ccccc2Cl)c(O)c1	inconclusive: 3.98 µM [inhibitor, partial curve, poor fit]		
CCCc1cc2c(-c3ccccc3)cc(=O)oc2cc1OCc1ccc(C(=O)O)o1	inconclusive: 17.8 µM [inhibitor, single point]		
CC1(C#CC[N+]2(C)CCCCC2)CCC2C(O1)c1ccccc1OC2(C)C (stereo not drawn)		inactive: -9.23%	
CC(=O)c1ccc(NC(=S)NCCCN2CCOCC2)cc1	inconclusive: 11.2 µM [inhibitor, partial curve, poor fit]		
O=C(COC(=O)CCNS(=O)(=O)c1cccc(C(F)(F)F)c1)NC(=O)NC1CCCCC1		inactive: -15.4%	
Cc1cc(N)n2nc(-c3ccccc3)cc2n1	inconclusive: 25.1 µM [inhibitor, partial curve, poor fit]		
FC(F)Oc1ccc(NC(=S)N2CCN(Cc3ccccc3)CC2)cc1	inconclusive: 28.2 µM [inhibitor, partial curve, poor fit]		
CN(C)c1ccc2nc3ccc(=O)cc-3sc2c1	inconclusive: 22.4 µM [inhibitor, single point]		
O=C(O)Cc1c[nH]c2cccc(O)c12	inconclusive: 31.6 µM [inhibitor, single point]		
C[c-]1[c-](C)[c-](C)[c-](C)[c-]1C.[Fe].c1cc2nccc(N3CCCC3)[c-]2c1 (stereo not drawn)	inconclusive: 14.1 µM [inhibitor, partial curve, poor fit] and inconclusive: 25.1 µM [inhibitor, partial curve, poor fit]		
c1ccc(-c2noc(-c3ccncc3)n2)nc1	inconclusive: 20 µM [inhibitor, partial curve]		
CC(=O)Nc1ccc(-c2nnc3n(CC(C)C)c(=O)c4ccccc4n23)cc1	inconclusive: 35.5 µM [inhibitor, single point]		
